# PMC4242493
# The other results are listed elsewhere or left out. The list includes weakly bound sequences.
# Biological target: MaxL homodimer (UniProt P61244)
# Assay: universal protein-binding microarray (PBM)
# Conditions: PBS-based mixture, 10 nM His-tagged protein dimer, 2% milk, 200 ng/uL BSA, 50 ng/uL salmon testes DNA, 0.02% TX-100; detection with Alexa 488 anti-His …; high values mean tight binding; most listed sequences are background and not binding sites; double strand, one strand shown
# Sequence of UniProt P61244 (P61244 whole entry): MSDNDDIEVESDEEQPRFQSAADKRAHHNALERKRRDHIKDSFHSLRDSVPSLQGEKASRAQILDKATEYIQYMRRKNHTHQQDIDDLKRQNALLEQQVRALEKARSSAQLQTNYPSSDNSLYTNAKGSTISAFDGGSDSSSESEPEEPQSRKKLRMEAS
row,Sequence,binding signal (normalized occupancy)
1,AGACAAAT,0.0757
2,GGCACAAC,0.0705
3,CAAGCAGC,0.0732
4,AAGCCTGG,0.0675
5,ACATTCCC,0.0766
6,ACTTGGGG,0.0791
7,GGGCAGGA,0.0733
8,CCCCGGGA,0.0693
9,AAACAGCT,0.0678
10,ATGAAAAA,0.0781
11,AACCCGGG,0.0704
12,CCCGTAGG,0.0672
13,ACGCGCGA,0.0786
14,ACGAGGCG,0.079
15,CGGCGTCC,0.0669
16,GAGGTGAA,0.0712
17,CCCTGTCA,0.0753
18,TGGATTAA,0.0902
19,AGAGTTTC,0.0684
20,CACGTAAC,0.0832
21,GGTAAAAC,0.0724
22,ACGTCCCG,0.076
23,GTTTTCAA,0.0755
24,ATTTGCAA,0.0701
25,AAGAGACC,0.0659

row,Sequence,binding signal (normalized occupancy)
1,CACATGTA,0.147
2,GCGTTGGA,0.0812
3,AGCCTTTA,0.0711
4,CTATGGGA,0.0764
5,ATGGGGAG,0.0855
6,GATTCGTA,0.075
7,CTTGTGGC,0.081
8,AACCGGGA,0.0762
9,CGGCCATA,0.074
10,GGTGGCTA,0.072
11,GGATGTCA,0.0814
12,ATTTATCA,0.0801
13,CAAACTCG,0.069
14,CCTTTTCG,0.0698
15,GCGTAGGA,0.0742
16,CATGATAC,0.0935
17,AGAGGCTG,0.074
18,ACCATGCG,0.136
19,GAAGCTAA,0.0683
20,AATTCGTC,0.0683
21,GGATCGTA,0.0821
22,GGGTGACA,0.0798
23,AAAACCGC,0.07
24,AAAGGTGC,0.0746
25,CTTTTCAA,0.0698

row,Sequence,binding signal (normalized occupancy)
1,TAGACACA,0.0829
2,GCAACAAA,0.0681
3,CTTCAAAG,0.0734
4,ATCCTACG,0.0775
5,CATGCGCA,0.125
6,CCTGCTAG,0.0714
7,AGCTGCCG,0.0674
8,ACCCTCAT,0.0827
9,GCGCTTAC,0.0729
10,AAGGTCAG,0.0723
11,ATTCATGG,0.0747
12,ACAGCGGT,0.071
13,AGTGAGTA,0.0749
14,GAAACGCA,0.0732
15,AACCTGTG,0.078
16,CCGAGTCA,0.0728
17,ACATCAAG,0.075
18,ACCGCAAA,0.0677
19,CTAGACCA,0.0761
20,CAAGATAA,0.0846
21,ATTGTTGG,0.0807
22,CCAACTAG,0.0726
23,CAATAAGG,0.0731
24,ACGTAAGT,0.073
25,CGTCGGAA,0.074

row,Sequence,binding signal (normalized occupancy)
1,CGTGCAAG,0.0859
2,TCGCCCAA,0.0688
3,TTATTCAA,0.0762
4,AGCATACC,0.0787
5,AATGTATA,0.0899
6,GAAGGTCA,0.0721
7,GACGATCA,0.0739
8,ACGTTCTC,0.0772
9,AGGGGTCA,0.081
10,AGCCCAAA,0.0722
11,CCAGTTCC,0.0668
12,GTGATCCA,0.0739
13,AAATGACA,0.0804
14,GTAAGCCA,0.0729
15,TATAATCA,0.0782
16,CGCTAAAC,0.0709
17,AGATATCC,0.0789
18,GCGCAAAA,0.0674
19,CAGCGAGC,0.0704
20,ATATGGGA,0.0957
21,CCAAATTC,0.0705
22,CGCATATC,0.0867
23,TACCATCA,0.0766
24,AGGCTTGA,0.0715
25,AAATTTGT,0.068

row,Sequence,binding signal (normalized occupancy)
1,GGCCCCTA,0.0764
2,CAACATCC,0.0782
3,AAGGGAAG,0.0757
4,ACAACGCG,0.077
5,ACACCCAA,0.0744
6,CCACCGTA,0.0773
7,GTGGTAAA,0.0779
8,AAAAAGGG,0.0721
9,AACCAAAG,0.068
10,AAAGCAGA,0.074
11,AAGGGTTC,0.0722
12,TATTAACA,0.0776
13,CTAACTCA,0.0776
14,GTCAGCCA,0.0796
15,CCCGACTC,0.0757
16,CGGACTAA,0.0716
17,ATCAGAGC,0.0778
18,CGTGCTGC,0.09
19,CATAGGGG,0.085
20,GGTGCGCA,0.0744
21,ATACTGCG,0.0787
22,AACCAAGA,0.0767
23,CGGACCAG,0.0689
24,CTTCGTAC,0.0714
25,ACACATCA,0.0839

row,Sequence,binding signal (normalized occupancy)
1,CGCGAGTC,0.0762
2,CCACACAA,0.0772
3,TAAAGTAA,0.0794
4,CCCAAGAA,0.0714
5,GAGCACGA,0.0838
6,TTCGTCAA,0.0799
7,CAATGCCA,0.079
8,CTAGTTGA,0.0764
9,ACTCTCCG,0.0686
10,ACGTCTCA,0.0761
11,CTCGTCTC,0.0777
12,AGTTGCGC,0.0719
13,CTATCCAG,0.0727
14,CGGGTGTC,0.0748
15,ATACGCCG,0.0712
16,GAGGCTGC,0.069
17,CCGGCCGA,0.0662
18,CCTTACGA,0.0735
19,CTTGTCCA,0.0792
20,ACATTATA,0.0868
21,ACCACCGG,0.0736
22,ATTCTGTG,0.0779
23,CTTAATTA,0.0757
24,CTAATGGA,0.0729
25,CAGTAGAG,0.0718

row,Sequence,binding signal (normalized occupancy)
1,AGAATTTA,0.0706
2,GCTTGACA,0.0727
3,ACAGTTCC,0.0675
4,ATATTGCC,0.0846
5,TCCCGTAA,0.0783
6,GGAGCGAC,0.0728
7,AAAGTTAA,0.0758
8,CGATTCAC,0.0799
9,CTCACACC,0.0818
10,TGGCACCA,0.0743
11,CCCCGGCC,0.0723
12,ATACGGTG,0.0797
13,AGGATTAG,0.0745
14,CAATAAAG,0.0733
15,CAACGTTG,0.083
16,CAATCGCG,0.0715
17,AAGGGCCC,0.0709
18,ACAGATTC,0.0776
19,GCCTCAGC,0.0723
20,CCTGAAGA,0.0682
21,GCATGTCA,0.0972
22,GCCTGCCC,0.0714
